The test system of the test is CEM cells HIV-1 protection, formazan growth assay. Description: NCI AIDS Antiviral Assay. As to conditions: for IC50: measured here: growth of uninfected CEM cells. Put shortly:
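Protection of CEM cells against HIV-1 measured as cell growth via soluble formazan read-out, with five concentrations tested on both infected and uninfected cells; failure to protect may reflect toxicity.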

Structures are written as SMILES. The source holds more than one record for some entries. Only these are listed. The source may hold further records. The records of an entry repeat one measurement (runs, samples, wells, individuals or studies). A tag in brackets gives the origin of a value. The letters are not those of the source and start again with each entry.

`O=[N+]([O-])c1ccc2[nH]c(=S)[nH]c(=S)c2c1`: the IC50 is > 200 µM [sample A] and 9.33 µM [sample B]. In the case of `O=C(NNC(=S)NC1OC(CO)C(O)C(O)C1O)c1cccc(C(=O)NNC(=S)NC2OC(CO)C(O)C(O)C2O)n1` (centres undefined), the EC50 was 16.2 µM [sample A] and > 200 µM [sample B].

With `Nc1ncnc2c(C3OC(CO)C(O)C3O)nsc12` (centres undefined), the IC50 is 2.51 nM [sample A] and 16.2 µM [sample B]. In the case of `Fc1cccc(F)c1C1SCc2nc3ccccc3n21` (centres undefined), the EC50 was 3.09 µM [sample A] and 7.24 µM [sample B] and 363 nM [sample C].

These data come from PubChem BioAssay AID179 (DTP/NCI, 2004).
